{"sequences": {"note": "By UniProt entry, the sequences of proteins in these tests, tags left out.", "UniProt Q60823": "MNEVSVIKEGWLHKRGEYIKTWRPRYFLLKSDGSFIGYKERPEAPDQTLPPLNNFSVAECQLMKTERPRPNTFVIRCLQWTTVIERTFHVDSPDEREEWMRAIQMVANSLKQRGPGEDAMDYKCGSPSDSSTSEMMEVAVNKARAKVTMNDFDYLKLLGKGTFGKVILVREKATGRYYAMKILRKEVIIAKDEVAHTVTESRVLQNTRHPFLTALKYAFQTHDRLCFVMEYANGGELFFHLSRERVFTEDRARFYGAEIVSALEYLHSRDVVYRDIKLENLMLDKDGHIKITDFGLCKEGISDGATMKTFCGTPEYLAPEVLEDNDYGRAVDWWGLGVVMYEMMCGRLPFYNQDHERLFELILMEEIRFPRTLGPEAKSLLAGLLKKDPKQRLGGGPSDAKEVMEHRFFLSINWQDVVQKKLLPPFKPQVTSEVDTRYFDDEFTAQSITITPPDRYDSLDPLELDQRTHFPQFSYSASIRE", "UniProt P31750": "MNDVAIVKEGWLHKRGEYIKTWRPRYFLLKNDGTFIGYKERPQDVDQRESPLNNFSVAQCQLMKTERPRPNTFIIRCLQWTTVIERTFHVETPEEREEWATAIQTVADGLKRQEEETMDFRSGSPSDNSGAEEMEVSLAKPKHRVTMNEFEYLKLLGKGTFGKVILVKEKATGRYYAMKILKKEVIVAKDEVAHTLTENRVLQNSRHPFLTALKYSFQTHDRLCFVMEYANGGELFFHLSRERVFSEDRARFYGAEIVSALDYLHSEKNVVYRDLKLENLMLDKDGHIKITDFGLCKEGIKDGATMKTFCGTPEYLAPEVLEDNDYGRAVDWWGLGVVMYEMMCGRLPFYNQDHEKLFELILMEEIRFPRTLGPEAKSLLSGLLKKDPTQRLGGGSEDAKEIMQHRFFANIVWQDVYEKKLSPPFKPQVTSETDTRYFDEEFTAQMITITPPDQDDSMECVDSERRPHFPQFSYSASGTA", "UniProt Q9JHG7": "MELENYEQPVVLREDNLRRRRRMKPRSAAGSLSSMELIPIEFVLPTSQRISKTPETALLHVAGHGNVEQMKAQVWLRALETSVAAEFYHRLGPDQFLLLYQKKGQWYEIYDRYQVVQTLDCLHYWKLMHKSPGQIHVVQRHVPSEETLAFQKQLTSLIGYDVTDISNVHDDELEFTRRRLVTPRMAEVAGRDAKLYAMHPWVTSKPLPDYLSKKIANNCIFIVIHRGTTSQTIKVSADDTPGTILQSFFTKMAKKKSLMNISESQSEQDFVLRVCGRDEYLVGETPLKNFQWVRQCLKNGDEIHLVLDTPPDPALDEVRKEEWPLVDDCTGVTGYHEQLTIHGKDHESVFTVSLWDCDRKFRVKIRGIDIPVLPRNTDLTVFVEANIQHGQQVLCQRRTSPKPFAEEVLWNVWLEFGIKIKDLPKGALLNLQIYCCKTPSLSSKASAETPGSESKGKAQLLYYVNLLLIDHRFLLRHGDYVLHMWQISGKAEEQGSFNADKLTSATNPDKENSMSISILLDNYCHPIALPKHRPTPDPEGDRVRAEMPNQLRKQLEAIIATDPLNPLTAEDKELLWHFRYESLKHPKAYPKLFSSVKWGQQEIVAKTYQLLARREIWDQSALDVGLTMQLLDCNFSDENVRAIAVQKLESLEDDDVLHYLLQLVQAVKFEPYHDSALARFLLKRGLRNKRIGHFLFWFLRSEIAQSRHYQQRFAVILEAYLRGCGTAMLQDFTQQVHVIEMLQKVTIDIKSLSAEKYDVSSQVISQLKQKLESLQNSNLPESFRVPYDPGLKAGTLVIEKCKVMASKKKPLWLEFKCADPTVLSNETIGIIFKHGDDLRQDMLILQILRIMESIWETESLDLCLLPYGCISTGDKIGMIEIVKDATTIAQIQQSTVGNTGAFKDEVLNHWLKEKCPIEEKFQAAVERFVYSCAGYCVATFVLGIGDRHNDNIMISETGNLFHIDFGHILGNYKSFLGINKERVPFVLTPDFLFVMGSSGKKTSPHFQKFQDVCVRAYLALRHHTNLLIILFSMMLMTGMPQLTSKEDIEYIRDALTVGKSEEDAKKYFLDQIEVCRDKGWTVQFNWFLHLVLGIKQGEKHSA", "UniProt A3KGF7": "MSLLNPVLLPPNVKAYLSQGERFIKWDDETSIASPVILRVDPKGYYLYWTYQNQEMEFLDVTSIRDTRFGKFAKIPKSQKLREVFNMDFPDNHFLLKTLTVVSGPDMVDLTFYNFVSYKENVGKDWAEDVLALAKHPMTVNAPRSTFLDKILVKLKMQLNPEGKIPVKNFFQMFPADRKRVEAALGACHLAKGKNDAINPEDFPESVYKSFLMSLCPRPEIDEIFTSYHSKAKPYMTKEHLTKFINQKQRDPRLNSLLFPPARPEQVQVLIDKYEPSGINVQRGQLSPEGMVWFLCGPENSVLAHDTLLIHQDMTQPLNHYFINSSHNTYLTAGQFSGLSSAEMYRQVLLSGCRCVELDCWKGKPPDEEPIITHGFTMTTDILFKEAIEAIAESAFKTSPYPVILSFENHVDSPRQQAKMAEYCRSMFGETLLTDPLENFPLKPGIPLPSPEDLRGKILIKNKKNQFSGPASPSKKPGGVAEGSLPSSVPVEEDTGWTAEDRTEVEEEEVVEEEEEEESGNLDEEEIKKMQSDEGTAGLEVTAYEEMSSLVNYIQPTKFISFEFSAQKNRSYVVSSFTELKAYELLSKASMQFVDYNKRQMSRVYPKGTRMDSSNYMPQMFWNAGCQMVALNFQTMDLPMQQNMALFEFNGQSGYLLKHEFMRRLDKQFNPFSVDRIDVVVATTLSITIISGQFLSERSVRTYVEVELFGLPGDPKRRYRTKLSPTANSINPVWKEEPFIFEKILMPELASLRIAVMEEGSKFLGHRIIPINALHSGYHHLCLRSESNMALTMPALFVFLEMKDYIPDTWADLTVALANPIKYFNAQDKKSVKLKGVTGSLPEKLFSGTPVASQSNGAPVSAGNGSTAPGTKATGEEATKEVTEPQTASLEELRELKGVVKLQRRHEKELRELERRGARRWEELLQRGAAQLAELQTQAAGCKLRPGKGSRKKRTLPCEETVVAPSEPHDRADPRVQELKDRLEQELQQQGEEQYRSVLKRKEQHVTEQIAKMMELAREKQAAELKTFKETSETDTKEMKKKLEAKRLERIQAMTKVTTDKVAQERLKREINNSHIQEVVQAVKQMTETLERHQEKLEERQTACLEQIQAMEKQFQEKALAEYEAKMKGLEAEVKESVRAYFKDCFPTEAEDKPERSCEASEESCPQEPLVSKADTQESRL"}, "source": "paper PMC10323775", "assay_in_all_cases": "co-IP; tagged proteins overexpressed in HEK293T cells; lysis in IP buffer (50 mmol/L Tris, 150 mmol/L NaCl, 2 mmol/L EDTA, 1% NP-40); anti-FLAG M2 affinity gel, 4 °C overnight; three washes; immunoblot", "key": {"[1]": {"biological_target": "AKT2 (UniProt Q60823)"}, "[2]": {"biological_target": "T1, complement 5a receptor 1 (C5aR1) (UniProt P30993)", "T1 sequence": "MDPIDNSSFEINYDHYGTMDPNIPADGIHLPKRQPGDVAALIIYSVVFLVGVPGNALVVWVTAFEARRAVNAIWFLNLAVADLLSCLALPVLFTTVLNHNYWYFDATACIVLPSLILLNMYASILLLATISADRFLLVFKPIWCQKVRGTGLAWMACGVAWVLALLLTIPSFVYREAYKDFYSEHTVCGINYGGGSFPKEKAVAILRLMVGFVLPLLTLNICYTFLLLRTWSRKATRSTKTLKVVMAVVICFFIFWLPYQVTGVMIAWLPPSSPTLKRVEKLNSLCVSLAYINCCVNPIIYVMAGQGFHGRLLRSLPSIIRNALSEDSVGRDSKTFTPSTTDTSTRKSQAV"}, "[3]": {"biological_target": "AKT1 (UniProt P31750)"}, "[4]": {"biological_target": "PIK3Cγ (UniProt Q9JHG7)"}, "[5]": {"biological_target": "PLCβ2 (UniProt A3KGF7)"}}, "note": "These are yes or no findings as the source states them, for the method shown. In cells and extracts the contact can be indirect. Some binding calls cover weakened binding; strength is not graded here.", "data": [{"binder": "guanine nucleotide-binding protein subunit alpha-12 (GNA12) (protein, UniProt P27600 1-379) MSGVVRTLSRCLLPAEAGARERRAGAARDAEREARRRSRDIDALLARERRAVRRLVKILLLGAGESGKSTFLKQMRIIHGREFDQKALLEFRDTIFDNILKGSRVLVDARDKLGIPWQHSENEKHGMFLMAFENKAGLPVEPATFQLYVPALSALWRDSGIREAFSRRSEFQLGESVKYFLDNLDRIGQLNYFPSKQDILLARKATKGIVEHDFVIKKIPFKMVDVGGQRSQRQKWFQCFDGITSILFMVSSSEYDQVLMEDRRTNRLVESMNIFETIVNNKLFFNVSIILFLNKMDLLVEKVKSVSIKKHFPDFKGDPHRLEDVQRYLVQCFDRKRRNRSKPLFHHFTTAIDTENIRFVFHAVKDTILQENLKDIMLQ", "values": [{"measurement": "binding", "setting": "[1]", "value": "no binding"}, {"measurement": "binding", "setting": "[2]", "value": "binds"}, {"measurement": "binding", "setting": "[3]", "value": "no binding"}, {"measurement": "binding", "setting": "[4]", "value": "no binding"}, {"measurement": "binding", "setting": "[5]", "value": "binds"}]}]}
